# Over roughly 2,900 compounds, “IRF Lucia reporter activity, fold change vs agonist alone” has its median near 0.9; the highest 2% begin near 2.8. The list shows a part of the results.
# Assays:
# [1] = tested on: RAW-Dual; assay: IRF Lucia reporter activity, fold change vs agonist alone; cytotoxicity flag (confluency mask): not cytotoxic; higher = enhanced IRF activity
# How it was run: (§1)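 Library stock was pin-tooled at 50 nL into 384-well plates of RAW-Dual macrophages (50,000 cells/well, DMEM), followed 1 h later by a PRR agonist, and the cells were kept at 37 °C, 5% CO2. Supernatant collected after 20 hours was read for IRF by QuantiLuc luminescence and for NF-κB by QuantiBlue absorbance at 620 nm. Reporter activity is fold change over agonist-alone wells, and a well counted as cytotoxic when its IncuCyte confluency was below 70% of agonist controls in both mask sets.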
# [2] = tested on: RAW-Dual; assay: IRF Lucia reporter activity, fold change vs agonist alone; higher = enhanced IRF activity; conditions: library stock concentration (final ~1000-fold dilution): 10 mM, agonist: MPLA (TLR4) […]
# How it was run: as §1
# [3] = tested on: RAW-Dual; assay: IRF Lucia reporter activity, fold change vs agonist alone; cytotoxicity flag (confluency mask): cytotoxic (confluency <70% of control); higher = enhanced IRF activity
# How it was run: as §1
# [4] = agonist: 3'3'-cGAMP (STING) 10 ug/mL
# [5] = cytotoxicity flag (confluency mask): not cytotoxic
structure (smiles),measurement,setting,value
CC(=O)C(=O)Oc1ccccc1C(=O)O (library stock concentration (final ~1000-fold dilution): 10 mM),IRF Lucia reporter activity,[1]; [4],0.0153
same,IRF Lucia reporter activity,[1]; agonist: LPS (TLR4) 0.1 ug/mL,0.0192
Cc1ccc(-n2sc(=O)n(Cc3ccc(F)cc3)c2=O)cc1,IRF Lucia reporter activity,[2]; cytotoxicity flag (confluency mask): cytotoxic (confluency <70% of control),0.703
Cc1ccc(-n2sc(=O)n(Cc3ccc(F)cc3)c2=O)cc1 (library stock concentration (final ~1000-fold dilution): 10 mM),IRF Lucia reporter activity,[3]; [4],0.62
same,IRF Lucia reporter activity,[3]; agonist: LPS (TLR4) 0.1 ug/mL,0.473
Cn1nc(C(C)(C)C)cc1C(=O)NC(Cc1cccc(Cl)c1)C(=O)NCC#N (configuration not stated),IRF Lucia reporter activity,[2]; [5],1.11
Cn1nc(C(C)(C)C)cc1C(=O)NC(Cc1cccc(Cl)c1)C(=O)NCC#N (configuration not stated) (library stock concentration (final ~1000-fold dilution): 10 mM),IRF Lucia reporter activity,[1]; [4],1.16
same,IRF Lucia reporter activity,[1]; agonist: LPS (TLR4) 0.1 ug/mL,1.01
O=C(NCCN1CCOCC1)c1ccc(Cl)cc1,IRF Lucia reporter activity,[2]; [5],0.932
O=C(NCCN1CCOCC1)c1ccc(Cl)cc1 (library stock concentration (final ~1000-fold dilution): 10 mM),IRF Lucia reporter activity,[1]; [4],1.57
same,IRF Lucia reporter activity,[1]; agonist: LPS (TLR4) 0.1 ug/mL,0.939
Cc1cc(Cl)ccc1OCCCC(=O)NO,IRF Lucia reporter activity,[2]; [5],0.704
Cc1cc(Cl)ccc1OCCCC(=O)NO (library stock concentration (final ~1000-fold dilution): 10 mM),IRF Lucia reporter activity,[1]; [4],0.0817
same,IRF Lucia reporter activity,[1]; agonist: LPS (TLR4) 0.1 ug/mL,1.04
CC(C)(C)NC(=O)C1CN(Cc2cccnc2)CCN1CC(O)CC(Cc1ccccc1)C(=O)NC1c2ccccc2CC1O.O=S(=O)(O)O (configuration not stated) (library stock concentration (final ~1000-fold dilution): 10 mM),IRF Lucia reporter activity,[1]; [4],1.1
same,IRF Lucia reporter activity,[1]; agonist: LPS (TLR4) 0.1 ug/mL,0.77
CN(C)CCOc1ccc(-c2nc(-c3ccncc3)c(-c3ccc4c(c3)CC/C4=N\O)[nH]2)cc1 (library stock concentration (final ~1000-fold dilution): 10 mM),IRF Lucia reporter activity,[1]; [4],0.992
same,IRF Lucia reporter activity,[1]; agonist: LPS (TLR4) 0.1 ug/mL,3.04
CN(C)CCOc1ccc(-c2nc(-c3ccncc3)c(-c3ccc4c(c3)CC/C4=N\O)[nH]2)cc1,IRF Lucia reporter activity,[2]; [5],1.04
COc1ccc(-c2oc3c(CC=C(C)C)c(OC4OC(CO)C(O)C(O)C4O)cc(O)c3c(=O)c2OC2OC(C)C(O)C(O)C2O)cc1 (configuration not stated),IRF Lucia reporter activity,[2]; [5],1.07
COc1ccc(-c2oc3c(CC=C(C)C)c(OC4OC(CO)C(O)C(O)C4O)cc(O)c3c(=O)c2OC2OC(C)C(O)C(O)C2O)cc1 (configuration not stated) (library stock concentration (final ~1000-fold dilution): 10 mM),IRF Lucia reporter activity,[1]; [4],0.985
same,IRF Lucia reporter activity,[1]; agonist: LPS (TLR4) 0.1 ug/mL,1.04
C1=CCOCc2cc(ccc2OCCN2CCCC2)Nc2nccc(n2)-c2cccc(c2)COC1 (library stock concentration (final ~1000-fold dilution): 10 mM),IRF Lucia reporter activity,[3]; [4],0.0112
same,IRF Lucia reporter activity,[3]; agonist: LPS (TLR4) 0.1 ug/mL,0.0217
OCC1OC(Oc2ccc(O)cc2)C(O)C(O)C1O (configuration not stated) (library stock concentration (final ~1000-fold dilution): 10 mM),IRF Lucia reporter activity,[1]; [4],1
same,IRF Lucia reporter activity,[1]; agonist: LPS (TLR4) 0.1 ug/mL,0.862
OCC1OC(Oc2ccc(O)cc2)C(O)C(O)C1O (configuration not stated),IRF Lucia reporter activity,[2]; [5],1.02
Cc1c(Br)c(Br)c2c3c1nc(N1CCNCC1)n3CCC2.Cl (library stock concentration (final ~1000-fold dilution): 10 mM),IRF Lucia reporter activity,[3]; [4],0.0133
same,IRF Lucia reporter activity,[3]; agonist: LPS (TLR4) 0.1 ug/mL,0.0103
Cc1ccc(Nc2ncc3c(n2)N(C)C(=O)N(c2cc(NC(=O)c4cccc(C(F)(F)F)c4)ccc2C)C3)cn1 (library stock concentration (final ~1000-fold dilution): 10 mM),IRF Lucia reporter activity,[1]; [4],0.242
same,IRF Lucia reporter activity,[1]; agonist: LPS (TLR4) 0.1 ug/mL,0.0192
O=C(Oc1ccccc1C(=O)O)c1ccccc1O (library stock concentration (final ~1000-fold dilution): 10 mM),IRF Lucia reporter activity,[1]; [4],0.744
same,IRF Lucia reporter activity,[1]; agonist: LPS (TLR4) 0.1 ug/mL,0.892
COc1c(C)c2c(c(O)c1C/C=C(\C)CCC(=O)O)C(=O)OC2 (library stock concentration (final ~1000-fold dilution): 10 mM),IRF Lucia reporter activity,[1]; [4],0.989
same,IRF Lucia reporter activity,[1]; agonist: LPS (TLR4) 0.1 ug/mL,1.12
COc1c(C)c2c(c(O)c1C/C=C(\C)CCC(=O)O)C(=O)OC2,IRF Lucia reporter activity,[2]; [5],1.14
CCOc1cc(CC(=O)NC(CC(C)C)c2ccccc2N2CCCCC2)ccc1C(=O)O (configuration not stated),IRF Lucia reporter activity,[2]; [5],1.34
CCOc1cc(CC(=O)NC(CC(C)C)c2ccccc2N2CCCCC2)ccc1C(=O)O (configuration not stated) (library stock concentration (final ~1000-fold dilution): 10 mM),IRF Lucia reporter activity,[1]; [4],0.954
same,IRF Lucia reporter activity,[1]; agonist: LPS (TLR4) 0.1 ug/mL,1.19
NS(=O)(=O)c1cc(Cl)c(Cl)c(S(N)(=O)=O)c1 (library stock concentration (final ~1000-fold dilution): 10 mM),IRF Lucia reporter activity,[1]; [4],0.98
same,IRF Lucia reporter activity,[1]; agonist: LPS (TLR4) 0.1 ug/mL,1.06
NS(=O)(=O)c1cc(Cl)c(Cl)c(S(N)(=O)=O)c1,IRF Lucia reporter activity,[2]; [5],0.993
CS(=O)(=O)c1ccc(-c2cnc(N)c(C(=O)Nc3ccccc3)n2)cc1 (library stock concentration (final ~1000-fold dilution): 10 mM),IRF Lucia reporter activity,[1]; [4],0.0584
same,IRF Lucia reporter activity,[1]; agonist: LPS (TLR4) 0.1 ug/mL,0.703
CNC(=O)c1ccc(-c2cnc3cnc(-c4ccccc4)cn23)cc1 (library stock concentration (final ~1000-fold dilution): 10 mM),IRF Lucia reporter activity,[1]; [4],0.101
same,IRF Lucia reporter activity,[1]; agonist: LPS (TLR4) 0.1 ug/mL,0.598
CC12CCC(=O)C=C1C=CC1C2CCC2(C)C1CCC21CCC(=O)O1 (configuration not stated) (library stock concentration (final ~1000-fold dilution): 10 mM),IRF Lucia reporter activity,[1]; [4],1.12
same,IRF Lucia reporter activity,[1]; agonist: LPS (TLR4) 0.1 ug/mL,1.22
CC12CCC(=O)C=C1C=CC1C2CCC2(C)C1CCC21CCC(=O)O1 (configuration not stated),IRF Lucia reporter activity,[2]; [5],1.09
COc1ccc(CCNCc2ccc(OCc3ccc(Cl)nc3)c(OC)c2)cc1OC.Cl (library stock concentration (final ~1000-fold dilution): 10 mM),IRF Lucia reporter activity,[1]; [4],0.609
same,IRF Lucia reporter activity,[1]; agonist: LPS (TLR4) 0.1 ug/mL,1.07
CC(C)N(CCCNC(=O)Nc1ccc(C(C)(C)C)cc1)CC1OC(n2ccc3c(N)ncnc32)C(O)C1O (configuration not stated),IRF Lucia reporter activity,[2]; [5],1.01
CC(C)N(CCCNC(=O)Nc1ccc(C(C)(C)C)cc1)CC1OC(n2ccc3c(N)ncnc32)C(O)C1O (configuration not stated) (library stock concentration (final ~1000-fold dilution): 10 mM),IRF Lucia reporter activity,[1]; [4],0.89
same,IRF Lucia reporter activity,[1]; agonist: LPS (TLR4) 0.1 ug/mL,1.1
O=C(O)CCCCC(CCSCc1ccccc1)SCc1ccccc1 (configuration not stated),IRF Lucia reporter activity,[2]; [5],1.13
O=C(O)CCCCC(CCSCc1ccccc1)SCc1ccccc1 (configuration not stated) (library stock concentration (final ~1000-fold dilution): 10 mM),IRF Lucia reporter activity,[1]; [4],1.22
same,IRF Lucia reporter activity,[1]; agonist: LPS (TLR4) 0.1 ug/mL,1.12

# From the supplement of paper PMC10037445
